In PubChem BioAssay AID651820 (National Center for Advancing Translational Sciences (NCATS), 2012):
Out of some 340,000 compounds screened, about 12,000 (3.5%) were called active. This list was built around the results that the source calls inconclusive (neither active nor inactive); the mix of calls is not that of the screen. Calls come from the whole dose curve; as a rule, active = well fitted inhibition curve with a large enough effect; inconclusive = small, poorly fitted or top-dose-only effect, or another doubt; inactive = no such curve, though single readings can be large or run the other way. No potency is given beside an inconclusive call; the fits are too rough.

Experiment: qHTS Assay for Inhibitors of Hepatitis C Virus (HCV)
Details: Huh7.5.1 HCVcc-Cre (HCVcc is cell-culture hepatitis C virus) infection, luciferase reporter, 44 h; activity change, negative = inhibition: at 41.8 µM (top of the series) unless noted
Method in brief: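 Whole-lifecycle infectious HCVcc-Cre system; cells 1,000/well, compound then virus (~0.5 moi) added 4 h after plating, 44 h culture. Luciferase read 15 sec following 15 min substrate incubation, room temp.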
% is set by controls: 0 for no effect and ±100 for the full control effect; potency is the fitted concentration of half-maximal effect; tags give direction and shape of the fitted curve.

Structure (SMILES)	Potency	activity change, negative = inhibition
Oc1c(C(Nc2ccccn2)c2ccccn2)ccc2cccnc12 (stereo not drawn)	inconclusive [inhibitor, full curve]	–
Cc1cc(C)c2cc(C#N)c(NCCOC(=O)c3ccccc3C)nc2c1	inconclusive [inhibitor, full curve, poor fit]	–
COc1ccc(NC(=O)CN(C)C(=O)c2c(-c3c(F)cccc3Cl)noc2C)cc1	–	inactive: -24.3%
Cc1c(O)ccc(C(=O)CN2CCN(c3ccc(F)cc3)CC2)c1O	–	inactive: -11%
COc1ccc(CCNC(=O)C(=O)NCCC2CCCCN2S(=O)(=O)c2ccccc2)cc1 (stereo not drawn)	–	inactive: -4.6%
O=C1N/C(=N\N=C\c2ccccn2)SC1Cc1cccc(SC(F)F)c1 (stereo not drawn)	inconclusive [inhibitor, partial curve]	–
N#Cc1ccccc1S(=O)(=O)N1CCN(C(=O)CN2CCCSc3ccccc32)CC1	inconclusive [inhibitor, single point]	–
CCOc1ccccc1NS(=O)(=O)c1cn(C)c(=O)n(C)c1=O	–	inactive: 12.8%
Cc1noc(NS(=O)(=O)c2ccc(NC(=O)/C=C/c3ccc(C(C)C)cc3)cc2)c1C	–	inactive: -5.63%
O=C(ONC1=NCCCCC1)c1c(F)cccc1F	inconclusive [inhibitor, single point]	–
Cc1ccc(NC(=O)C2CCN(S(=O)(=O)c3ccc4c(c3)OCCO4)CC2)nc1	–	inactive: -7.07%
CC1=CC(C)(C)N2C(=O)C3(SCC(=O)N3c3ccc(F)cc3)c3cc(C)cc1c32 (stereo not drawn)	inconclusive [inhibitor, single point]	–
CC1(c2cc([N+](=O)[O-])cc([N+](=O)[O-])c2)CC(C)(C)N(C(=O)c2ccccc2)c2ccccc21 (stereo not drawn)	inconclusive [inhibitor, single point]	–
CC(=O)c1cccc(NC(=O)c2ccc(N(Cc3ccccc3C)S(C)(=O)=O)cc2)c1	inconclusive [inhibitor, single point]	–
COc1ccc(S(=O)(=O)N2CCc3ccccc32)cc1C(=O)NCCc1ccc(S(N)(=O)=O)cc1	–	inactive: -5.77%
Cc1ccccc1CNC(=O)C(=O)NCC1OCCCN1S(=O)(=O)c1ccc(F)cc1C (stereo not drawn)	inconclusive [inhibitor, single point]	–
CCOc1ccc(C(=O)Nc2cc(-c3nc4ccccc4[nH]3)ccc2Cl)cc1[N+](=O)[O-]	inconclusive [inhibitor, full curve]	–
CCN(CC)S(=O)(=O)c1ccc(Cl)c(NC(=O)COC(=O)/C=C/c2ccc(O)c(OC)c2)c1	inconclusive [inhibitor, full curve]	–
Cc1sc2ncnc(N3CCC(C)CC3)c2c1C	–	inactive: -21.3%
CCOc1cc(CN2CCCCCC2)ccc1OC	–	inactive: 1.31%
CCCN1CCN(CCCNC(=O)c2ccc3c(Cl)c4c(nc3c2)CCCC4)CC1	inconclusive [inhibitor, partial curve]	–
Cc1csc(C(=O)O)c1NC(=O)c1c(Cl)cccc1Cl	–	inactive: 18.2%
COc1ccc(N(CC(=O)Nc2ccc(OC)c(Cl)c2)S(=O)(=O)c2c(C)noc2C)cc1	inconclusive [inhibitor, single point]	–
COc1ccc(-c2csc(Nc3ccccc3)n2)cc1	active: 14.1 µM	–
CC1Cc2ccccc2N1C(=O)COC(=O)c1cc(Br)ccc1O (stereo not drawn)	inconclusive [inhibitor, single point]	–

Structure (SMILES)	Potency	activity change, negative = inhibition
O=C(Nc1ccc2cn[nH]c2c1)c1c(Cl)cccc1Cl	–	inactive: -17.6%
COc1cccc(N=Nc2c(N)[nH]n3c(=O)c4c(nc23)CCCC4)c1	inconclusive [inhibitor, partial curve]	–
O=C(c1ccco1)N1CCN(C(=S)Nc2cccc([N+](=O)[O-])c2)CC1	–	inactive: -18.4%
CC(C)CN(CC(C)C)CC(O)COc1ccccc1Br (stereo not drawn)	–	inactive: 10.8%
COc1ccc(C(C)=O)cc1COC(=O)c1cccnc1SC	inconclusive [inhibitor, single point]	–
CN(C)c1ccc(C(=O)c2ccc(N(C)C)cc2)cc1	inconclusive [inhibitor, full curve]	–
CCOC(=O)N1CCN(Cc2cc(Cl)c3cccnc3c2O)CC1	active: 3.98 µM	–
O=C(NC1CCN(Cc2ccccc2)CC1)C1CCN(S(=O)(=O)c2cccc([N+](=O)[O-])c2)CC1	inconclusive [inhibitor, partial curve]	–
C=CCN(C(=O)c1csnn1)C(C(=O)NCc1ccc(F)cc1)c1ccccc1F (stereo not drawn)	–	inactive: -8.54%
CCCCc1ccc(NC(=O)c2ccc(NS(C)(=O)=O)cc2)cc1	inconclusive [inhibitor, single point]	–
O=C(CSc1oc(-c2ccco2)nc1S(=O)(=O)c1ccccc1)NCC1CCCO1 (stereo not drawn)	inactive	–
C(=N\Nc1nccc(-c2cccnc2)n1)/c1ccccc1	–	inactive: 12.9%
O=C(COc1cccc(Cl)c1)Nc1ccccc1N1CCCCC1	inconclusive [inhibitor, single point]	–
Cc1ccc(N=Nc2c(N)[nH]n3c(=O)cc(-c4ccccc4)nc23)cc1	active: 12.6 µM	–
O=C(Cc1ccc(S(=O)(=O)N2CCOCC2)s1)OCc1ccc(Cl)cc1	–	inactive: 7.31%
CCOC(=O)c1sc(NC(=O)COC(=O)CNC(=O)c2ccco2)c(C(=O)OCC)c1C	inconclusive [inhibitor, partial curve]	–
OC(CCCN1CCC(O)(c2ccc(Cl)cc2)CC1)c1ccc(F)cc1 (stereo not drawn)	inconclusive [inhibitor, full curve]	–
Cc1c(C(=O)NCC2CCCO2)sc2nc(-c3ccc(F)cc3)cn12 (stereo not drawn)	–	inactive: -23.2%
O=C(c1ccc(Cl)c(Cl)c1)N(Cc1ccco1)c1ccc(O)cc1	inconclusive [inhibitor, partial curve]	–
Cc1ccc(Cn2c(Cc3ccccc3)nc3ccccc32)cc1	inconclusive [inhibitor, single point]	–
Brc1cnc(N2CCCC2)nc1N1CCOCC1	active: 22.4 µM	–
Cn1c2ccc(F)cc2c2ncn(Cc3ccco3)c(=O)c21	inconclusive [inhibitor, partial curve]	–
CCOC(=O)N1CCC(NC(=O)c2ccc3c(c2)ncn3C2CCCC2)CC1	–	inactive: -1.08%
Cc1cccc(Nc2nc(N)nc(-c3oc4ccccc4c3C)n2)c1	inconclusive [inhibitor, partial curve, poor fit]	–
O=C(Nc1cccc(-c2nc3ccccc3[nH]2)c1)c1cccc(NC(=O)c2ccco2)c1	active: 3.55 µM	–

Structure (SMILES)	Potency	activity change, negative = inhibition
CCC1CCCCN1CCCNC(=O)c1ccc2c(c1)c(C)c(C)n2C (stereo not drawn)	inconclusive [inhibitor, single point]	–
COc1ccc(C(CC(=O)N2CCCCC2)c2c(OC)cc(OC)c3c(-c4ccccc4)cc(=O)oc23)cc1 (stereo not drawn)	inconclusive [inhibitor, single point]	–
Cc1cc(S(=O)(=O)NCC2CCCO2)c(C)cc1Br (stereo not drawn)	–	inactive: 7.12%
Cc1cc(N2CCN(c3ccccc3)CC2)n2c(n1)nc1ccccc12	–	inactive: 1.64%
CCn1cc(/C=C(\NC(=O)c2ccc(OC)cc2)C(=O)N2CCN(C)CC2)c2ccccc21	–	inactive: -3.21%
O=S(=O)(Nc1cc(Cl)ccc1-n1cncn1)c1cc(Br)ccc1Br	inconclusive [inhibitor, single point]	–
O=C(O)CNC(=O)/C=C/c1c(Cl)cccc1Cl	–	inactive: -0.833%
Cc1cccc(NC(=O)c2ccc(S(=O)(=O)N3CC(C)OC(C)C3)cc2)n1 (stereo not drawn)	inconclusive [inhibitor, partial curve, poor fit]	–
CC(=O)N1c2ccc(S(=O)(=O)N(C)CC(=O)Nc3ccccc3C)cc2CC1C (stereo not drawn)	inconclusive [inhibitor, single point]	–
CCCCCCCCCCCCCCCC[n+]1ccc(/C=N/O)cc1	inconclusive [inhibitor, single point]	–
CS(=O)(=O)N(CC(=O)N1CCCC1)c1ccc(Cl)cc1Cl	active: 2.82 µM	–
O=C(c1ccc2c3c(cccc13)CC2)C1CCCN(Cc2cccnc2)C1 (stereo not drawn)	active: 22.4 µM	–
C=C(c1ccc(O)cc1)c1ccc(O)cc1	active: 8.91 µM	–
COc1ccc(Cl)cc1NC(=O)C1CC(=O)N(C2CCCCC2)C1 (stereo not drawn)	inconclusive [inhibitor, single point]	–
Cc1cccc(Cc2c(C)nc3c(C(=O)N4CCN(Cc5ccc6c(c5)OCO6)CC4)cnn3c2C)c1	inconclusive [inhibitor, single point]	–
O=C(Nc1nc2ccccc2s1)c1ccccc1	inconclusive [inhibitor, partial curve, poor fit]	–
COc1cc(/C=N/NC(=O)c2ccc(CSc3nc4ccccc4[nH]3)cc2)cc(OC)c1OC	inconclusive [inhibitor, full curve]	–
O=C(N/N=C/c1ccc([N+](=O)[O-])o1)c1ccccc1-n1cccc1	inconclusive [inhibitor, single point]	–
COc1cccc(/C=N/NC(=O)c2[nH]nc3c2CCc2ccccc2-3)c1O	inconclusive [inhibitor, partial curve]	–
COC(=O)C(Cc1ccc(O)cc1)NC(=O)C12CC3CC(CC(C3)C1)C2 (stereo not drawn)	–	inactive: 2.25%
Cc1ccc(S(=O)(=O)Nc2ccc(S(=O)(=O)N3CCCC3)cc2)cc1	inconclusive [inhibitor, single point]	–
Cc1cccc(NC(=O)CSc2nc3ccccc3nc2N2CC(C)OC(C)C2)c1 (stereo not drawn)	active: 11.2 µM	–
CCC(C)[C@H](NC(=O)NC1CCCc2ccccc21)C(=O)O (stereo partly drawn)	inconclusive [inhibitor, single point]	–
